System: human immunodeficiency virus-associated neurological dysfunction
Assay: Cognitive function in patients with HIV-associated neurological dysfunction
Conditions: same patient, after 6 weeks

Which “speed of completion of the Trailmaking A test” value (from 25) does the source give for OC[C@@H]1CC[C@H](n2cnc3c(O)ncnc32)O1 [2',3'-dideoxyinosine] here?
Its value is 18 s.

What about the “speed of completion of the Trailmaking B test” value (from 96) of the same compound?
Its value is 80 s.
